We go through 50 molecules from patent publication US20250214977A1, “STAT6 INHIBITORS AND USES THEREOF” (Kymera Therapeutics, Inc., priority 2024, published 2025).

The target of the assay is T1, biotinylated truncated STAT6 (123-632)-avi (Homo sapiens, UniProt P42226).
T1 sequence (P42226 123-632 limits assumed): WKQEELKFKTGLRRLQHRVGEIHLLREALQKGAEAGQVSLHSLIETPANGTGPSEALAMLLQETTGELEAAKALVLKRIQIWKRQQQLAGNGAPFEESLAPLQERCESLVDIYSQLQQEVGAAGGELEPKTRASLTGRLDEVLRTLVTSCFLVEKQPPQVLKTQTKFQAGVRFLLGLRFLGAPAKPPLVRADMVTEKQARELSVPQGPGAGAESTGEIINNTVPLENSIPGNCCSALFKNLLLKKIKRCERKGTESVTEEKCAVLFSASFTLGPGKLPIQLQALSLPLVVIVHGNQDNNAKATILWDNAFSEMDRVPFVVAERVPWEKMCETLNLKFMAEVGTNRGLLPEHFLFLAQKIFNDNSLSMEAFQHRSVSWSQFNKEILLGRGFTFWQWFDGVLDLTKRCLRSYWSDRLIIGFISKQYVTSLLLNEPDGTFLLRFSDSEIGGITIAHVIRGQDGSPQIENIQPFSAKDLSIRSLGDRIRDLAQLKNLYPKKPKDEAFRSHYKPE
Briefly: Homogenous Time-Resolved Fluorescence (HTRF) binding assay. As to conditions: 0.15 nM biotinylated truncated STAT6 (123-632)-avi, 20 nM fluorescein-labeled probe.

“2-(3-(1-(cyclopropylmethyl)-7-(2-ethyl-6-methylpyridin-3-yl)-5-(4-(5-fluoro-3-methoxypyridin-2-yl)piperazine-1-carbonyl)-1H-indol-2-yl)-5,6-dihydropyridin-1(2H)-yl)-2-oxoacetic acid [Example I-1228]” gave an IC50 (30 minutes at room temperature) of under 0.1 µM.

Take “5-(1-(2-formyl-1,2,3,4-tetrahydroisoquinoline-3-carbonyl)-1,2,5,6-tetrahydropyridin-3-yl)-7-(2-methoxyphenyl)-N,N-dimethylbenzofuran-2-carboxamide [Example I-803]”: the 50% inhibitory concentration (IC50) (30 minutes at room temperature) is under 0.1 µM.

The molecule `COC(=O)C1CCC(c2ccc3oc(C(=O)N(C)C)cc3c2)CN1C(=O)CCn1ccnn1` (mixture of isomers) [Example I-1] returned an IC50 (30 minutes at room temperature) of over 100 µM.

The molecule `COC(=O)C1CCC(c2ccc3oc(C(=O)N(C)C)cc3c2)CN1C(=O)CCn1ccnn1` (mixture of isomers) [Example I-2] yielded an IC50 (30 minutes at room temperature) of over 100 µM.

Where the note is “30 minutes at room temperature”, `CCC1CN(C(=O)c2cc3c(-c4ccccc4OC)cc(C4=CCCN(C(=O)CCn5ccnn5)C4)c(F)c3[nH]2)CC=C1c1ccccn1` (racemic) [Example I-1042] had an IC50 of 10 to 100 µM.

Under “30 minutes at room temperature”, `COc1ccc(C)cc1-c1cc(C2=CCCN(C(=O)C3Cc4ccccc4CN3C=O)C2)cc2cc(C(=O)N(C)C)oc12` (racemic) [Example I-1196] yielded an IC50 of under 0.1 µM.

For the molecule `C[C@H]1CCCCN1C(=O)c1cc2ccc(C3=CCCN(C(=O)CCn4ccnn4)C3)cc2[nH]1` (single isomer, unassigned) [Example I-129], the IC50 (30 minutes at room temperature) was in the range of 10 to 100 µM.

As to `C[C@@H]1CCCCN1C(=O)c1cc2ccc(C3=CCCN(C(=O)CCn4ccnn4)C3)cc2[nH]1` (single isomer, unassigned) [Example I-130], the IC50 (30 minutes at room temperature) lay within 10 to 100 µM.

The molecule `COC(=O)[C@H]1CC[C@@H](c2ccc3oc(C(=O)N(C)C)cc3c2)CN1C(=O)CCn1ccnn1` (single isomer, unassigned) [Example I-151] returned an IC50 (30 minutes at room temperature) of 10 to 100 µM.

In turn, `COC(=O)[C@H]1CC[C@H](c2ccc3oc(C(=O)N(C)C)cc3c2)CN1C(=O)CCn1ccnn1` (single isomer, unassigned) [Example I-152] displayed an IC50 (30 minutes at room temperature) of 1 to 10 µM.

Molecule `CN(C)C(=O)c1cc2cc([C@@H]3CC[C@H](CO)N(C(=O)CCn4ccnn4)C3)ccc2o1` (single isomer, unassigned) [Example I-156] yielded an IC50 (30 minutes at room temperature) of 10 to 100 µM.

Take `CN(C)C(=O)c1cc2cc(C3=CCCN(C(=O)[C@H](N)Cn4ccnn4)C3)ccc2o1` (single isomer, unassigned) [Example I-174]: the IC50 (30 minutes at room temperature) fell in the range of 10 to 100 µM.

In turn, `CC(=O)N1CCc2ccccc2[C@H]1C(=O)N1CCC=C(c2ccc3oc(C(=O)N(C)C)cc3c2)C1` (single isomer, unassigned) [Example I-176] gave an IC50 (30 minutes at room temperature) of 10 to 100 µM.

The molecule `CN(C)C(=O)c1cc2cc([C@@H]3CN(C(=O)CCn4ccnn4)CC[C@H]3O)ccc2o1` (single isomer, unassigned) [Example I-209] registered an IC50 (30 minutes at room temperature) of 10 to 100 µM.

With `CN(C)C(=O)c1cc2cc([C@H]3CN(C(=O)CCn4ccnn4)CC[C@@H]3O)ccc2o1` (single isomer, unassigned) [Example I-210], under “30 minutes at room temperature”, the IC50 was in the range of 10 to 100 µM.

On to `C[C@@H](Cn1ccnn1)C(=O)N1CCC=C(c2ccc3oc(C(=O)N(C)C)cc3c2)C1` (single isomer, unassigned) [Example I-229], for which, for the setting “30 minutes at room temperature”, the IC50 is 10 to 100 µM.

With `CN(C)C(=O)c1cc2c(F)c(C3=CCCN(C(=O)[C@@H]4Cc5ccccc5CN4C=O)C3)ccc2o1` (single isomer, unassigned) [Example I-375], for the setting “30 minutes at room temperature”, the IC50 was under 0.1 µM.

Regarding `CN(C)C(=O)c1cc2c(F)c(C3=CCCN(C(=O)[C@H]4Cc5ccccc5CN4C=O)C3)ccc2o1` (single isomer, unassigned) [Example I-376], the IC50 (30 minutes at room temperature) lay in the range of 1 to 10 µM.

For `COc1ccccc1-c1cc(C2=CCCN(C(=O)[C@H]3Cc4ccccc4CN3C=O)C2)cc2cc(C(=O)N(C)C)oc12` (single isomer, unassigned) [Example I-804], the IC50 (30 minutes at room temperature) is 0.1 to 1 µM.

In the case of `COc1ccccc1-c1cc(C2=CCCN(C(=O)[C@@H]3Cc4ccccc4CN3C=O)C2)cc2cc(C(=O)N(C)C)oc12` (single isomer, unassigned) [Example I-805], where the note is “30 minutes at room temperature”, the IC50 lay within 10 to 100 µM.

Consider `CCc1ccncc1-c1cc(C2=CCC[C@H](C(=O)O)C2)c(F)c2[nH]c(C(=O)N3CCN(c4ncc(F)cc4OC)CC3)cc12` (single isomer, unassigned) [Example I-809], for which, where the note is “30 minutes at room temperature”, the concentration for half-maximal inhibition (IC50) was over 100 µM.

In turn, `CCc1ccncc1-c1cc(C2=CCC[C@@H](C(=O)O)C2)c(F)c2[nH]c(C(=O)N3CCN(c4ncc(F)cc4OC)CC3)cc12` (single isomer, unassigned) [Example I-810] had an IC50 (30 minutes at room temperature) of over 100 µM.

For `CCC1CCCCC1c1cc(C2=CCCN(C(=O)CCn3ccnn3)C2)c(F)c2[nH]c(C(=O)N3CCN(c4ncc(F)cc4OC)CC3)cc12` (single isomer, unassigned) [Example I-1174], the half-inhibitory concentration (IC50) (30 minutes at room temperature) is 1 to 10 µM.

Where the note is “30 minutes at room temperature”, `CCC1CCCCC1c1cc(C2=CCCN(C(=O)CCn3ccnn3)C2)c(F)c2[nH]c(C(=O)N3CCN(c4ncc(F)cc4OC)CC3)cc12` (single isomer, unassigned) [Example I-1175] showed an IC50 of 0.1 to 1 µM.

In turn, `CN(C)C(=O)c1cc2ccc([C@H]3CCCN(C(=O)CCn4ccnn4)C3)c(F)c2[nH]1` (single isomer, unassigned) [Example I-1187] returned an IC50 (30 minutes at room temperature) of under 0.1 µM.

Regarding `CNc1ccc(-c2cc([C@@H]3CCCN(C(=O)CCn4ccnn4)C3)cc3[nH]c(C(=O)N(C)C)cc23)c(OC)c1` (single isomer, unassigned) [Example I-1191], the IC50 (30 minutes at room temperature) is 1 to 10 µM.

`CNc1ccc(-c2cc([C@H]3CCCN(C(=O)CCn4ccnn4)C3)cc3[nH]c(C(=O)N(C)C)cc23)c(OC)c1` (single isomer, unassigned) [Example I-1194] had an IC50 (30 minutes at room temperature) of under 0.1 µM.

Take `COC(=O)c1cc2c(F)c([C@H]3CCCN(C(=O)CCn4cccn4)C3)cc(-c3ccc(N4CCN(C(=O)OC(C)(C)C)CC4)cc3)c2o1` (single isomer, unassigned) [Example I-1265]: the IC50 (30 minutes room temperature) was in the range of 10 to 100 µM.

As to `CNc1ccc(-c2cc([C@H]3CCCN(C(C)=O)C3)c(F)c3[nH]c(C(=O)N(C)C)cc23)c(OC)c1` (single isomer, unassigned) [Example I-1649], the IC50 (30 minutes room temperature) was under 0.1 µM.

As to `CNc1ccc(-c2cc([C@@H]3CCCN(C(C)=O)C3)c(F)c3[nH]c(C(=O)N(C)C)cc23)c(OC)c1` (single isomer, unassigned) [Example I-1650], the IC50 (30 minutes room temperature) lay in the range of 1 to 10 µM.

For the molecule `CN(C)C(=O)c1cc2ccc([C@@H]3CCCN(C(=O)CCn4ccnn4)C3)c(F)c2[nH]1` (single isomer, unassigned) [Example I-1667], where the note is “30 minutes room temperature”, the IC50 lay within 1 to 10 µM.

For the setting “30 minutes at room temperature”, `CNC1(C(=O)N2CCC=C(c3ccc4oc(C(=O)N(C)C)cc4c3)C2)CCc2ccccc2C1` (centres unmarked) [Example I-5] came in with an IC50 of 10 to 100 µM.

For the setting “30 minutes at room temperature”, `CN(C)C(=O)c1cc2cc(C3=CCCN(C(=O)C4Cc5c(N)cccc5CN4C=O)C3)ccc2o1` (centres unmarked) [Example I-8] returned an IC50 of under 0.1 µM.

In turn, `CN(C)C(=O)c1cc2ccc(C3=CCCN(C(=O)CCc4ccn(C)n4)C3)cc2[nH]1` [Example I-10] showed an IC50 (30 minutes at room temperature) of over 100 µM.

The molecule `CN(C)C(=O)c1cc2ccc(C3=CCCN(C(=O)[C@@H]4C[C@H]4c4ccn(C)n4)C3)cc2[nH]1` [Example I-11] displayed an IC50 (30 minutes at room temperature) of 10 to 100 µM.

`Cc1cnnn1CCC(=O)N1CCC=C(c2ccc3cc(C(=O)N(C)C)[nH]c3c2)C1` [Example I-12] showed an IC50 (30 minutes at room temperature) of 0.1 to 1 µM.

On to `CN(C)C(=O)c1cc2ccc(C3=CCCN(C(=O)CCn4nncc4CO)C3)cc2[nH]1` [Example I-13], for which, where the note is “30 minutes at room temperature”, the IC50 was in the range of 10 to 100 µM.

`CN(C)C(=O)c1cc2ccc(C3=CCCN(C(=O)CCc4nn[nH]n4)C3)cc2[nH]1` [Example I-15] yielded an IC50 (30 minutes at room temperature) of 10 to 100 µM.

Under “30 minutes at room temperature”, `CN(C)C(=O)c1cc2ccc(C3=CCCN(S(=O)(=O)Cc4cccnn4)C3)cc2[nH]1` [Example I-16] came in with an IC50 of over 100 µM.

For `CN(C)C(=O)c1cc2ccc(C3=CCCN(C(=O)CCc4nnco4)C3)cc2[nH]1` [Example I-18], the IC50 (30 minutes at room temperature) is over 100 µM.

As for `CN(C)C(=O)c1cc2ccc(C3=CCCN(C(=O)CCc4ccon4)C3)cc2[nH]1` [Example I-20], the 50% inhibitory concentration (IC50) (30 minutes at room temperature) is over 100 µM.

`CN(C)C(=O)c1cc2ccc(C3=CCCN(C(=O)CCc4nnc[nH]4)C3)cc2[nH]1` [Example I-21] showed an IC50 (30 minutes at room temperature) of 10 to 100 µM.

Molecule `CN(C)C(=O)c1cc2c(-c3ccc(O)cc3)cc(C3=CCCN(C(=O)CCn4ccnn4)C3)cc2[nH]1` [Example I-22] registered an IC50 (30 minutes at room temperature) of under 0.1 µM.

In turn, `C#Cc1cc(C2=CCCN(C(=O)CCn3ccnn3)C2)cc2cc(C(=O)N(C)C)oc12` [Example I-23] registered an IC50 (30 minutes at room temperature) of 0.1 to 1 µM.

Molecule `C[C@@H](O)C(=O)N1CCC=C(c2ccc3cc(C(=O)N(C)C)[nH]c3c2)C1` [Example I-24] registered an IC50 (30 minutes at room temperature) of 10 to 100 µM.

For the setting “30 minutes at room temperature”, `CN(C)C(=O)c1cc2ccc(C3=CCCN(C(=O)C4CC4F)C3)cc2[nH]1` (centres unmarked) [Example I-25] yielded an IC50 of over 100 µM.

In turn, `CN(C)C(=O)c1cc2ccc(C3=CCCN(C(=O)C4CC4F)C3)cc2[nH]1` (centres unmarked) [Example I-26] gave an IC50 (30 minutes at room temperature) of 10 to 100 µM.

Molecule `CN(C)C(=O)c1cc2ccc(C3=CCCN(C(=O)C4(O)CC4)C3)cc2[nH]1` [Example I-27] yielded an IC50 (30 minutes at room temperature) of 10 to 100 µM.

On to `CN(C)C(=O)c1cc2ccc(C3=CCCN(C(=O)C4CC(O)C4)C3)cc2[nH]1` (centres unmarked) [Example I-28], for which the IC50 (30 minutes at room temperature) fell in the range of 10 to 100 µM.

With `CN(C)C(=O)c1cc2ccc(C3=CCCN(C(=O)C4CC(=O)N4)C3)cc2[nH]1` (centres unmarked) [Example I-30], the IC50 (30 minutes at room temperature) lay in the range of 10 to 100 µM.

As a reminder, the IC50 is the concentration that inhibits the measured activity by half.
